# Results from publication PMC6919601, “Identification of Plasmodium dipeptidyl aminopeptidase allosteric inhibitors by high throughput screening” (PLoS ONE, 2019).
# Values joined by “and” are separate entries in the source; they are usually repeats but may differ in a detail not shown here. Equal entries are not always repeated. Hit rate of the full screen: of about 110,000 compounds, about 230 (0.21%) showed an effect of 50% or more. Some of the results follow.
# Biological target: DPAP1 (Plasmodium falciparum, UniProt Q8IIJ9)
# Sequence (Q8IIJ9 whole entry, looked up): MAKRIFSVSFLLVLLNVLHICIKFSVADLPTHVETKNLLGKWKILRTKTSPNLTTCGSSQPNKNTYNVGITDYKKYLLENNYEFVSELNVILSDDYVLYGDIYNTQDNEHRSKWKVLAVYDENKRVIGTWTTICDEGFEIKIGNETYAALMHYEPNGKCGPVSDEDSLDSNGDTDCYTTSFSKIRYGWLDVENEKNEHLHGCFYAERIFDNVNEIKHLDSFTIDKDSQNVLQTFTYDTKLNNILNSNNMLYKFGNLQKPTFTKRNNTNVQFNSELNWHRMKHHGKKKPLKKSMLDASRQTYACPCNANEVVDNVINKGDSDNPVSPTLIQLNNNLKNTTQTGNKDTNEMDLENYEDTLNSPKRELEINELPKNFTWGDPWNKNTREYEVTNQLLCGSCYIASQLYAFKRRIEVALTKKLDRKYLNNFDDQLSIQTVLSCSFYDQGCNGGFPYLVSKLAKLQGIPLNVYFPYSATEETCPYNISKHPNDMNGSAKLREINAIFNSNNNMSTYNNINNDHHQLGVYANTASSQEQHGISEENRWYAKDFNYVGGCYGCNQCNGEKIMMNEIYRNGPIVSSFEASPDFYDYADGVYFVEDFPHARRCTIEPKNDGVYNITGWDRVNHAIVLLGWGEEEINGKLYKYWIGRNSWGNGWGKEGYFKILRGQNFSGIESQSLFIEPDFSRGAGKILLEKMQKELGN
# Assay: primary screen, percent inhibition; read by cleavage of a fluorogenic dipeptide substrate; higher = more effect of the substance
# Design: species or system P. falciparum D10 trophozoite lysates; single well
# 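Further: 30 min substrate incubation versus DMSO and 10 µM JCP410 controls.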
row,SMILES,% Inhibition @ 10 uM
1,Clc1ccc(CN2CCN(c3ccccc3Cl)CC2)cc1Cl,-1.92%
2,CCC(NC(=O)Nc1cccc2ccccc12)(C(F)(F)F)C(F)(F)F,4.15%
3,COc1ccc(C)cc1NC(=O)COc1ccc(C)c(C)c1,22.7%
4,Cc1cc2c(cc3c(=O)n(CC(=O)N4CCc5ccccc5C4)ncn32)s1,3.29%
5,CCC(C)(C)C1CCc2c(sc(NC(=O)C3CCCCC3C(=O)O)c2C(N)=O)C1 (stereo not drawn),5.63%
6,O=C(CNS(=O)(=O)c1ccc(Br)s1)N1CCN(C2CCCCC2)CC1,0.723%
7,CC(C)c1nnc(NC(=O)c2nc(S(=O)(=O)Cc3ccc(F)cc3)ncc2Cl)s1,0.758%
8,O=C1CC(N2CCCCCC2)C(=O)N1c1ccc(F)cc1 (stereo not drawn),0.361%
9,CC1CCN(C(=O)COCc2cc(-c3ccc(F)cc3)on2)CC1,-6.13%
10,COCCCNC(=O)CS(=O)Cc1nc(-c2cccc(Cl)c2)oc1C (stereo not drawn),2.16%
11,COc1cccc(C2C(C#N)=C(N)Oc3[nH]nc(-c4ccccc4F)c32)c1 (stereo not drawn),-7.55%
12,CC[n+]1c(/C=C/c2ccc3c(c2)OCO3)sc2ccc(OC)cc21,2.04%
13,COc1ccccc1NC(=O)c1ccccc1NC(=O)CCc1ccccc1,-1.84%
14,CCC1CCCCN1C(=O)CSc1nc(O)c2cnn(-c3ccc(C)cc3)c2n1 (stereo not drawn),6.63%
15,CC1CCCC(NC(=O)c2cc(S(=O)(=O)N3CCOCC3)ccc2F)C1C (stereo not drawn),-3.78%
16,Cc1noc(/C=C/c2ccco2)c1S(=O)(=O)N1CCC(C(=O)N2CCN(C)CC2)CC1,2.14%
17,Oc1ccc(C2Nc3cc(Cl)c(Cl)cc3N2)c(O)c1,-9.83%
18,N#C/C(=C\c1ccc(N2CCOCC2)cc1)c1nc2ccccc2[nH]1,-2.18%
19,COc1c(C(=O)N[C@@H](CC(C)C)C(=O)NCC#N)csc1Br,-8.26%
20,COc1ccc(C2NC(=O)c3cnn(-c4ccccc4)c3N2)cc1COc1ccccc1C (stereo not drawn),-3.13%
21,CCNc1nc(NC(C)C)nc(Oc2ccc(OCCOc3ccccc3)nn2)n1,-0.178%
22,COC(=O)C1=C(C)N(C)C(C)=C(C(=O)OC)C1c1ccccc1C(F)(F)F,-2.39%
23,CCCOc1ccc(C2C(C#N)=C(C)N=C3CC(C)(C)CC(O)=C32)cc1OC (stereo not drawn),-1.99%
24,CCOC(=O)N1CCC2(CC1)OC(=O)C(C)=C2C(=O)NCCOC,1.34%
25,CCOc1cc(C2CC(=O)NC3=C2C(=O)CCC3)ccc1OC(C)C (stereo not drawn),3.11%
26,CC1(C)Cc2c(sc3nc(SCC(=O)c4ccccc4)nc(N)c23)CO1,-6.39%

row,SMILES,% Inhibition @ 10 uM
1,CC1CCC(NC2CCN(Cc3ccccc3)CC2)C1 (stereo not drawn),3.35%
2,O=C(c1ccccc1)c1ccccc1C(=O)N1CCCC1,0.316%
3,CCOc1ccccc1CN(C)C1CCN(C)CC1,4.66%
4,OCCOCCN1CCN(C2C3CC4CC(C3)CC2C4)CC1 (stereo not drawn),-0.0908%
5,Cc1ccc(S(=O)(=O)N(CC(=O)N2CCCCC2)c2cccc(C)c2)cc1,-3.58%
6,Cc1n[nH]c(C)c1CCc1nc2c3ccccc3nc(NCCC(C)C)n2n1,2.6%
7,O=C(O)C(NC(=O)c1ccccc1)=C1CCCCC1,-2.97%
8,COCCn1c(SCC(N)=O)nc2c(c1=O)SCC2,-1%
9,COc1ccccc1C1C(C#N)=C(N)Oc2c1c(C)nn2-c1ccc(C)cc1 (stereo not drawn),0.746%
10,CCN(CCN(C)C)Cc1ccc(O)cc1,5.2%
11,Cc1ccc2oc(=O)c3cc(C(=O)NCCN4CCc5ccccc5C4)sc3c2c1,7.78%
12,COc1ccc(C2=N/C(=C\c3coc4ccccc4c3=O)C(=O)O2)cc1Br,0.0932%
13,O=C(NCc1ccco1)Nc1cnc2ccccn2c1=O,3.66%
14,CCOc1ccc(C2(C)CC(=O)N(C)C2=O)cc1 (stereo not drawn),-0.424%
15,COc1ccc(C(=O)Nc2ccc(C(C)=O)cc2)cc1,6%
16,CCCCN1C(=O)c2cccc3c(S(=O)(=O)N4CCCC4C(=O)O)ccc1c23 (stereo not drawn),-11.2%
17,c1ccc(OC[C@@H]2CCCN3CCCCC23)nc1 (stereo partly drawn),-1.52%
18,Cc1cc2c(cc3c(=O)n(CC(=O)NC(C)CCc4ccccc4)ncn32)s1 (stereo not drawn),-1.7%
19,COC(F)(C(=O)Nc1nc(-c2ccc(C)cc2)cs1)C(F)(F)F (stereo not drawn),-3.71%
20,COc1c(N)cc2c(C)c(C(=O)N3CCOCC3)oc2c1OC,0.00178%
21,CC(C)(C)c1ccccc1OCCCCCN1CCCC1,-4.3%
22,COC(=O)c1cn(C(=O)COc2ccccc2C)c2ccccc12,-2.65%
23,CC(C)(C)C(=O)Nc1cccc(NC(=O)C(C)(C)C)c1,-1.88%
24,C=CCS(=O)(=O)Nc1ccc(OC)cc1,0.132%
25,CCC1(CC)Cc2ccccc2C2=C(C(=O)N3CCCC3)C(=O)C(=O)N21,-2.67%
26,CC1=NN(C(=O)c2ccncc2)C(O)(c2cccnc2)C1 (stereo not drawn),-5.23%

row,SMILES,% Inhibition @ 10 uM
1,CC(Cc1ccccc1)NC(=O)/C=C/C(=O)O (stereo not drawn),0.736% and -3.38%
2,Cc1cccc(-c2noc(-c3cccs3)n2)c1,-5.7%
3,Cc1ccccc1-c1nc(CN2CCC(C(=O)NC3CCCC(C)C3C)CC2)c(C)o1 (stereo not drawn),5.56%
4,O=C(Cn1cnc2c(nc3n2CCCCC3)c1=O)NC1CCCCCC1,-0.238%
5,CC1=C(CCN2CCN(CCO)CC2)C(C)(C)CCC1,-3.72%
6,COc1ccc(Nc2nc(-c3ccccn3)cs2)cc1,0.345%
7,CCCCN(C)CCNC(=O)C1c2ccccc2C(=O)N(C)C1c1cn(C)c2ccccc12 (stereo not drawn),-7.98%
8,Cc1ccc(-n2ncc3c(O)nc(SCC(=O)O)nc32)cc1,-1.54%
9,O=C1NCCc2c1[nH]c1c(Br)cc3c(c21)OCCO3,1.04%
10,COc1ccc(C2=NN(CCC(=O)NC(C)(C)C)C(=O)CC2)cc1,-4.53%
11,COc1cccc2c1OC1(C)CC2/C(=C(\C)O)C(=O)N1 (stereo not drawn),-11.9%
12,COc1ccc(CCNC(=O)CCc2nnc3ccc(N4CCOCC4)nn23)c(OC)c1,-1.2%
13,COc1c(O)cnn(C2CCCCC2)c1=O,-4.15%
14,NC(=O)c1c(-c2ccc(F)cc2)noc1N,3.54%
15,Cc1cc(C)cc(OCC(=O)Nc2ccc(S(=O)(=O)NC(C)(C)C)cc2)c1,6.15%
16,NS(=O)(=O)c1ccc(CCNC(=O)c2cccc(Br)c2)cc1,4.16%
17,COc1ccc(-c2cn3c(n2)sc2cc(C(=O)N4CCC(N5CCCCC5)CC4)ccc23)cc1,19.3%
18,c1ccc(CCN2CCC(N3CCCCCC3)CC2)cc1,-1.81%
19,CCCCOc1ccc(-c2ncc(C(=O)OCC)c(Cl)n2)cc1,5.23%
20,C=CCn1c(NC(=O)CC)nc2ccccc21,-13%
21,CCN(CC)c1ccc(/C=C2/NC(=O)N(Cc3ccc(C)cc3)C2=O)cc1,-6.47%
22,O=C(NCc1ccncc1)c1cc(=O)c2cc(Cl)ccc2o1,-5.08%
23,O=[N+]([O-])c1ccccc1CN1CCCC1,-7.34%
24,Cc1ccccc1S(=O)(=O)Cc1ccc(C(=O)NC(C)CCc2ccccc2)o1 (stereo not drawn),-3.09%
25,Cn1c(SCC(=O)Nc2nnc(Cc3ccccc3)s2)nc2sc3c(c2c1=O)CCCC3,-3.34%
26,COc1ccc(N2CCN(C(=O)c3ccc(C#CC(C)(C)O)o3)CC2)cc1,2.79%

row,SMILES,% Inhibition @ 10 uM
1,CCc1nnc2[nH]c(=O)n(C)c(=O)c2n1,0.569%
2,Cc1cccc(OCCSc2nc3ccccc3n2CC(=O)O)c1,1.76%
3,C=CCOc1cc(Br)c(/C=C2\NC(=O)N(Cc3ccc(Cl)cc3)C2=O)cc1OC,-4.93%
4,COc1ccc(C2C3=C(CC(C)(C)CC3=O)N(CC(=O)O)C3=C2C(=O)CC(C)(C)C3)cc1OC,-5.67%
5,CCCc1ccc(C#N)c(SCC(=O)Nc2ccc(OC)cc2)n1,1.82%
6,O=C1/C(=C/c2cc([N+](=O)[O-])cc(Br)c2O)Sc2ccccc21,-2.42%
7,CC(OC(=O)c1ccc([N+](=O)[O-])cc1)C(N)=O (stereo not drawn),0.98%
8,N#CC1(NC(=O)[C@H](Cc2cc(I)c(O)c(I)c2)NC(=O)c2ccc(N3CCOCC3)cc2)CC1,-1.41%
9,CCC1(C)Oc2ccccc2C2CC(c3ccccc3)=NN21 (stereo not drawn),-2.87%
10,O=C(Nc1cccc(O)c1)/C(=C/c1ccccc1Cl)NC(=O)c1ccccc1,-5.79%
11,CCC(C)NC(=O)C(C)Oc1cccc(Cl)c1 (stereo not drawn),-0.884%
12,Cc1cc2sc(NC(=O)c3cccs3)nc2cc1Cl,0.83%
13,COCc1cc(C)nc2sc(C(=O)OC)c(-n3cccc3)c12,2.7%
14,CCOc1cc(CNS(=O)(=O)c2ccc3[nH]c4c(c3c2)CCCC4)cc(OCC)c1OCC,-1.41%
15,c1ccc(N2CCN(Cc3ccsc3)CC2)nc1,-3.71%
16,CCOC(=O)c1c(NC(=O)CSc2nc(C)c(Cc3ccc(O)cc3)[nH]2)sc2c1CCCC2,3.47%
17,O=C(NCc1ccc(F)cc1)C1CCCN(c2ncnc3c2nc2n3CCCCC2)C1 (stereo not drawn),1.9%
18,O=C1NC(c2ccc3c(c2)OCO3)Nc2sc3c(c21)CCCC3 (stereo not drawn),2.7%
19,CC1CCN(c2nc3nonc3nc2N2CCC(C)CC2)CC1,-1.11%
20,O=C1CC(c2ccccc2OCc2ccccc2)C2=C(CCCC2=O)N1 (stereo not drawn),12.4%
21,CC(=O)NCc1cn2c(C)csc2n1,0.953%
22,CN(C)/C=C1\C(=O)c2ccc(N(C)C)nc2CC1c1ccccc1 (stereo not drawn),0.774%
23,CC1(C)CC(n2nc(O)c3c2NC(=O)CSC3c2ccc(F)cc2)CCO1 (stereo not drawn),-5.91%
24,COc1cc(C2=N/C(=C\C(C)=C\c3ccccc3)C(=O)O2)cc(OC)c1OC,-7.76%
